Measured values from PubChem BioAssay AID686971 (National Center for Advancing Translational Sciences (NCATS), 2013).
In all, about 360,000 compounds went through this assay and about 7,500 (2.1%) were called active. The shares of active, inactive and inconclusive entries below differ from those in the screen. Calls come from the whole dose curve; as a rule, active = well fitted cell-killing curve with a large enough effect; inconclusive = small, poorly fitted or top-dose-only effect, or effect the other way, or another doubt; inactive = no such curve, though single readings can be large or run the other way. No potency is given beside an inconclusive call; the fits are too rough.

Assay: qHTS for induction of synthetic lethality in tumor cells producing 2HG: qHTS for the HT-1080-IDH1KD cell line;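 for activity, negative = toxicity: 0% = DMSO wells and -100% = cell-free medium wells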
Conditions: HT-1080 IDH1 knockdown viability, ATP luminescence, 48 h; activity, negative = toxicity: at 46.1 µM (top of the series) unless noted
Method in brief: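 HT-1080-IDH1KD cells (IDH1 knocked down), 750/well in RPMI with 5% FBS, treated with compound 48 h at 37 degrees C. Viability by CellTiter-Glo luminescence, normalised to DMSO and no-cell wells; concentration-response curves classed.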
Potency is the fitted concentration of half-maximal effect; tags give direction and shape of the fitted curve.

Row | Compound | activity, negative = toxicity | Potency
1 | Cc1cc(C)c[n+](-c2[nH]c(=O)sc2/C=N/N=C(\N)[S-])c1 | inactive: 12.2% | –
2 | CCOc1ccc(-n2nnnc2SCC(=O)c2ccccc2)cc1 | – | inconclusive [cytotoxic, single point]
3 | Cc1c(C(=O)OC2CCCCC2)sc2nc[nH]c(=O)c12 | – | inconclusive [cytotoxic, single point]
4 | Cn1nnnc1SCc1nc2scc(-c3ccc(Cl)cc3)c2c(=O)[nH]1 | – | inconclusive [cytotoxic, partial curve]
5 | O=C(c1cccc(S(=O)(=O)Nc2ccc(Br)cc2)c1)N1CCCC1 | inactive: 2.74% | –
6 | CC1=NN(C(=O)c2cccc(Cn3nc(C)c([N+](=O)[O-])c3C)c2)C(O)(C(F)(F)F)C1 (stereo not drawn) | – | active: 5.01 µM
7 | Cc1ccccc1C(=O)N1CCC2CC1c1cc(Cl)ccc12 (stereo not drawn) | inactive: 0.804% | –
8 | CC(=O)c1cccc(-c2ccnc3c2CC(C(=O)NCCc2ccccc2)O3)c1 (stereo not drawn) | – | inconclusive [cytotoxic, full curve]
9 | Cc1[nH]n(-c2ccccc2)c(=O)c1C(=O)c1ccc([N+](=O)[O-])cc1 | inactive: -10.8% | –
10 | CC(=O)Nc1cccc(-c2ccnc3c2CC(C(=O)Nc2cccc(N(C)C)c2)O3)c1 (stereo not drawn) | – | inconclusive [cytotoxic, single point]
11 | O=C(NCc1cccnc1)c1ccc(NS(=O)(=O)c2cccc([N+](=O)[O-])c2)cc1 | inconclusive: 20.8% | –
12 | CCC(=O)OCC(=O)[C@@]1(OC(=O)CC)[C@@H](C)C[C@H]2[C@@H]3CCC4=CC(=O)C=C[C@]4(C)[C@@]3(Cl)[C@@H](O)C[C@@]21C | inactive: -19% | –
13 | COc1cc(S(=O)(=O)n2cnc(C)c2)ccc1Br | – | inconclusive [cytotoxic, single point]
14 | CN1CCN(C(=O)C2=C[C@@H](c3csc4ccccc34)C[C@@H](OCc3ccc(CO)cc3)O2)CC1 | inactive: -3.9% | –
15 | CCOc1ccc(NC(=O)CNc2cccc(S(=O)(=O)N3CCCCCC3)c2)cc1OCC | – | inconclusive [cytotoxic, single point]
16 | CCOC(=O)[C@]12CCCC=C1N(CCc1ccc(OC)c(OC)c1)C(=O)[C@H](CC(=O)NCCCCc1ccccc1)C2 | – | inconclusive [cytotoxic, single point]
17 | O=c1c2ccccc2nc2n1CCc1c-2[nH]c2ccccc12 | – | inconclusive [cytotoxic, single point]
18 | CCOc1ccc2nc(NCCNC(=S)NCCCN(C)C)c(C#N)cc2c1 | – | inconclusive [cytotoxic, single point]
19 | CN(C)C(=O)c1cccc(-c2cnc3sc(NCc4ccc5c(c4)OCO5)nn23)c1 | – | inconclusive [cytotoxic, single point]
20 | CCOC(=O)c1ccc(/C=C2/C=C(c3ccccc3)N(c3ccc(Cl)c(C(=O)O)c3)C2=O)cc1 | – | active: 9.2 µM
21 | CCc1cccc(NC(=O)c2cccc3c2C(=O)N(C2CCCCC2)C3)c1 | inactive: 4.23% | –
22 | Cc1ccc(NC(=O)C2(C)CCN2Cc2ccccc2OC(F)F)cc1 (stereo not drawn) | – | inconclusive [cytotoxic, single point]
23 | CCCCNC(=O)C1(C)CCN1Cc1cccc2c(OC)cc(C(=O)OCC)cc12 (stereo not drawn) | – | inconclusive [cytotoxic, single point]

Row | Compound | activity, negative = toxicity | Potency
24 | CCOC(=O)c1ccc(NC(=O)N2CCN(c3ccccn3)CC2)cc1 | inactive: 7.04% | –
25 | CCSc1nc(-c2ccccc2)nc(C(Cl)Cl)n1 | – | inconclusive [cytotoxic, single point]
26 | O=C(N/N=C/c1ccc2ncccc2c1)c1cccc([N+](=O)[O-])c1 | – | inconclusive [rising, single point]
27 | COCCNC(=O)c1ccc(CS(=O)(=O)c2ccc(OC)cc2)o1 | inactive: 1.54% | –
28 | CN(C)CCCN(C(=O)c1ccc(Br)s1)c1nc2cc3c(cc2s1)OCCO3 | – | inconclusive [cytotoxic, partial curve]
29 | Cc1[nH]c2ccccc2c1C(=O)CN1CCC(C)CC1 | inactive: 3.96% | –
30 | Clc1ccc(CN2C3=NCCN3c3ccccc32)cc1Cl | – | inconclusive [cytotoxic, single point]
31 | COc1ccc(-n2c(SCC(=O)Nc3ccc(NC(C)=O)cc3)nc3c([nH]c4ccccc43)c2=O)cc1OC | – | inconclusive [cytotoxic, partial curve]
32 | Cc1ccc(-n2ncc3c(SCc4cccc(C)c4)ncnc32)cc1 | inconclusive: 30% | –
33 | CCCS/C(N)=N/N=C/c1cc(C)ccc1O | – | inconclusive [cytotoxic, single point]
34 | O=C(c1ccc(Cl)c(Cl)c1)N1CCC(=O)N(C(COCc2cccc(C(F)(F)F)c2)Cc2ccccc2)CC1 (stereo not drawn) | – | inconclusive [cytotoxic, single point]
35 | Cc1ccc(S(=O)(=O)N2[C@@H](c3ccc(Br)cc3)C(C(=O)O)=C[C@H]2C(C)(C)C)cc1 | inactive: -11.3% | –
36 | O=C(CSc1nnc(CNC(=O)c2cccs2)o1)Nc1ccc(Br)cc1 | inactive: -17.3% | –
37 | O=C(/C=C/c1ccc(S(=O)(=O)N2CCOCC2)cc1)NC(CO)C(O)c1ccc([N+](=O)[O-])cc1 (stereo not drawn) | inactive: 16.6% | –
38 | O=C(C[n+]1cc(-c2ccc(Cl)c(Cl)c2)n2c1CCC2)N1c2ccccc2Sc2ccccc21 | – | inconclusive [cytotoxic, partial curve]
39 | Cc1ccccc1OCC(=O)NNC(=S)NC(=O)c1ccccc1[N+](=O)[O-] | – | inconclusive [cytotoxic, single point]
40 | C/C=C/c1ccc(OCC(O)CNCC(c2ccc(OC)cc2)N(C)C)c(OC)c1 (stereo not drawn) | – | inconclusive [cytotoxic, single point]
41 | c1ccc(-c2cn3nc4c(nc3n2)CCCC4)cc1 | – | inconclusive [cytotoxic, single point]
42 | CCC(Oc1cc(Cl)ccc1Cl)C(=O)NN1C(=O)C2C3CCC(C3=C(C)C)C2C1=O (stereo not drawn) | – | inconclusive [cytotoxic, single point]
43 | O=C(c1ccco1)N1CCN(C(=O)c2cn(-c3ccccc3)nc2-c2ccccc2)CC1 | inactive: -3.64% | –
44 | O=C(COc1ccc(S(=O)(=O)N2CCCCC2)cc1)N1CCCC1 | inactive: 1.42% | –
45 | CCc1nnc(NS(=O)(=O)c2ccc(N=Cc3c(C)[nH]n(-c4ccc(C)cc4)c3=O)cc2)s1 | – | inconclusive [cytotoxic, single point]
46 | CNc1sc(C(=O)c2ccc(F)cc2)c(N)c1-c1nc2ccccc2s1 | – | active: 6.31 µM

Row | Compound | activity, negative = toxicity | Potency
47 | CC(C)c1nnc(NC(=O)CCC(=O)NCc2cccs2)s1 | inactive: -0.548% | –
48 | COc1cc(C(=O)NCC(c2cccs2)N2CCc3ccccc32)cc(OC)c1OC (stereo not drawn) | inactive: -14.6% | –
49 | CSc1cccc(NC(=O)c2cnccn2)c1 | inactive: 16.1% | –
50 | Cc1nc2c(OCc3cc(Cl)cc(Cl)c3)cccn2c1N(C)C(=O)CCC1CCCC1 | – | inconclusive [cytotoxic, single point]
51 | COc1ccc(C(=O)Nc2cc(C)ccc2NC(=O)COc2ccccc2)cc1 | – | inconclusive [cytotoxic, single point]
52 | CN(C)CCCNc1nc2cc(-c3cccc(C(F)(F)F)c3)sc2c(=O)n1C | – | inconclusive [cytotoxic, single point]
53 | COc1ccc([C@H]2N[C@]3(CCCN(Cc4ccc(C(F)(F)F)cc4)C3=O)[C@H]3C(=O)N(Cc4ccccc4)C(=O)[C@@H]23)cc1 | inconclusive: -30.1% [cytotoxic] | –
54 | COc1cccc(/C=N/NC(=O)CSc2nnc(C)n2-c2ccccc2)c1O | – | active: 13 µM
55 | CCSc1ncc(/C=N/Nc2ccc(Cl)cc2)n1C | – | inconclusive [cytotoxic, partial curve, poor fit]
56 | Cc1cccc(/C=N\Nc2cn[nH]c(=O)c2Cl)c1 | – | inconclusive [cytotoxic, single point]
57 | CC(C)(C)Nc1nc(NN)nc(NC(C)(C)C)n1 | – | inconclusive [cytotoxic, partial curve]
58 | CCCN(CCC)CCCNC(=O)c1cn(-c2ccc(OC)cc2)c(=O)c2ccccc12 | inactive: 16.4% | –
59 | CC(C)C(=O)N(c1ccc2oc(=O)sc2c1)S(=O)(=O)c1ccccc1 | – | inconclusive [cytotoxic, single point]
60 | CCCC(=O)N1CCC1(C)C(=O)NCc1ccccc1SC (stereo not drawn) | – | inconclusive [rising, partial curve, poor fit]
61 | O=C(O)CCC(=O)Nc1nc2nccc(-c3ccccc3)n2n1 | inactive: 13.6% | –
62 | O=C(NCCN1C(=O)S/C(=C\c2ccccc2Cl)C1=O)C1=COCCO1 | inactive: -21.2% | –
63 | CC(C)CNC(=O)C1(C)CCCCCN1C(=O)c1cc2ccccc2s1 (stereo not drawn) | – | inconclusive [rising, single point]
64 | O=C(CC1Sc2ccccc2NC1=O)NNc1cc(Cl)ccc1Cl (stereo not drawn) | – | inconclusive [cytotoxic, partial curve]
65 | Cc1ccc(C)c(CSc2nnc(-c3cccs3)n2Cc2ccco2)c1 | – | inconclusive [cytotoxic, single point]
66 | Cc1cc(C)c2cc(C(=O)N3CCC(Cc4ccccc4)CC3)[nH]c2c1 | – | inconclusive [cytotoxic, single point]
67 | C=CC[C@H](CC(=O)N[C@H](CO)Cc1ccccc1)C(=O)N[C@@H](COC(=O)[C@H](CC=C)CC(=O)OC(C)(C)C)Cc1c[nH]c2ccccc12 | – | inconclusive [cytotoxic, single point]
68 | Clc1ccc(-c2nc3ccc(Br)cn3c2Cc2cccc(Cl)c2)cc1 | – | active: 14.6 µM
